{"source": "the RNAGym collection of RNA variant scans (doi:10.7554/elife.90254)", "parents": {"B1": {"name": "OR4K15 (parent)", "chain": "GUUAACGGUCAUAGGCCAUGGAAACUAGGAGCACCAUUUCGCUGCCAGUGAAGAAAUGAACAAAGAAAAUCUGGGCCAGGCAGGCAUCAAAAGAAAUAGUCUUGCGCUCAACCAGAAAGUCUGUAAUCAUUUUAAGGGUA"}}, "note": "The source gives no read counts; variants with many changes may rest on few reads.", "data": [{"variants_of": "B1", "test": "self-cleavage, relative activity (ratio to wild type); higher = more cleavage; in vitro, sequencing; the parent is a self-cleaving ribozyme", "values": [{"variant": "A5G C34A A62U", "self-cleavage": 1.55}, {"variant": "A5G U97A A114G", "self-cleavage": 0.19}, {"variant": "A5G G14A A30G C46U A82G A92G A118G A126G", "self-cleavage": 0.08}, {"variant": "A5G A24G U38C U87C", "self-cleavage": 1.45}, {"variant": "A5G G15A G41C A60G U72C A118G", "self-cleavage": 0.19}, {"variant": "A5G A51U C77A U103C", "self-cleavage": 0.44}, {"variant": "A5U A30U C77U", "self-cleavage": 1.72}, {"variant": "A4G U38A A67U A78U A86G A96C U97C", "self-cleavage": 0.14}, {"variant": "A5G U43C A52G A69U U130C", "self-cleavage": 0.61}, {"variant": "A5C A22G A66G A69G", "self-cleavage": 1.56}, {"variant": "A5U A23G A95G U122G", "self-cleavage": 1.32}, {"variant": "A5G A18U U39C A67G U87A A94G", "self-cleavage": 0.98}, {"variant": "A5U A66G A89G A94G U130C A140G", "self-cleavage": 1.57}, {"variant": "A5G A27G G31A A90U", "self-cleavage": 1.25}, {"variant": "A5G U38C A47G U87C", "self-cleavage": 1.36}, {"variant": "A5G U39C A59G", "self-cleavage": 0.54}, {"variant": "A5G U12C U120A", "self-cleavage": 1.96}, {"variant": "A5U A30G U37C A68G A69G A117G", "self-cleavage": 0.52}, {"variant": "A5C U37C A47U U49C A114G", "self-cleavage": 0.14}, {"variant": "A5G A18G C40A A96C", "self-cleavage": 1.02}, {"variant": "A5C A56U A78G U87C A92G U130C G137U", "self-cleavage": 0.2}, {"variant": "A5G A51G A59G G93U", "self-cleavage": 0.99}, {"variant": "A5G U26C C42U A95G A110G", "self-cleavage": 0.22}, {"variant": "A5G A66G A114G G137A", "self-cleavage": 0.55}, {"variant": "A5G U39A A82U U120C", "self-cleavage": 0.23}, {"variant": "A4G U39A U49C U130C A134G", "self-cleavage": 0.78}, {"variant": "A5G U37C A135G", "self-cleavage": 0.73}, {"variant": "A5G U37C A135U", "self-cleavage": 0.83}, {"variant": "A5G A111C U132C", "self-cleavage": 0.05}, {"variant": "A5U U19C U57C U132C", "self-cleavage": 0.47}, {"variant": "A5G A22G A30U U70C U103C", "self-cleavage": 0.34}, {"variant": "A5U A60U A64G A78U", "self-cleavage": 0.42}, {"variant": "A5G A27G A59U A68G", "self-cleavage": 0.94}, {"variant": "A5U C71U G136U", "self-cleavage": 0.85}, {"variant": "A5G U57C A64G A111U", "self-cleavage": 0.1}, {"variant": "A5G A55G A114U U122C", "self-cleavage": 0.03}, {"variant": "A5G A60G U103C", "self-cleavage": 0.94}, {"variant": "A4G G104A U122C", "self-cleavage": 0.03}, {"variant": "A5G U9G U127C", "self-cleavage": 0.66}, {"variant": "A5G U38A U70A", "self-cleavage": 0.94}, {"variant": "A5G U37C A54G A67G A125G", "self-cleavage": 0.69}, {"variant": "A5G A33G A52G A62U A67G C85U A95G", "self-cleavage": 0.97}, {"variant": "A5G A36G A59G A92G A94G A114G A126G U133C", "self-cleavage": 0.32}, {"variant": "A5G A36U A62G G83A U122C", "self-cleavage": 1.16}, {"variant": "A5G A92G A96G", "self-cleavage": 1.33}, {"variant": "A5G A13G A22G A82G U102C", "self-cleavage": 1.16}, {"variant": "A5G A68G U70C A95G U130G U133C", "self-cleavage": 1.47}, {"variant": "A5G A91G G99A U102C A111G", "self-cleavage": 0.13}, {"variant": "A5G A56G A86U A89U G106A", "self-cleavage": 0}, {"variant": "A5G A60G U120C", "self-cleavage": 0.47}, {"variant": "A5G A27G A64G A94G U100C U122C", "self-cleavage": 1.13}, {"variant": "A5U U19C U103C A116G", "self-cleavage": 0.71}, {"variant": "A5C A118G U122A A135U U139C", "self-cleavage": 0.87}, {"variant": "A5G A24G A27G A135U", "self-cleavage": 0.12}, {"variant": "A5G A55G A135U", "self-cleavage": 0.61}, {"variant": "A4G U43C A59G", "self-cleavage": 2.09}, {"variant": "A5G A23G U26C", "self-cleavage": 1.07}, {"variant": "A5G A47G A59G A96G", "self-cleavage": 0.61}, {"variant": "A4G G44A A63G A98G", "self-cleavage": 0.69}, {"variant": "A5U U37C A89U U102C", "self-cleavage": 0.64}, {"variant": "A5G U26C U38C A111U U132C", "self-cleavage": 0.07}, {"variant": "A5G A51G A66U U127C", "self-cleavage": 0.76}, {"variant": "A5U A27U A54G A60G", "self-cleavage": 1}, {"variant": "A5G U43A A82G", "self-cleavage": 0.88}, {"variant": "A5G U9C A22G U26C A36G A64U U103A", "self-cleavage": 0.56}, {"variant": "A5G U12C A59G A69C A118G", "self-cleavage": 0.36}, {"variant": "A4G U12C G106U C113A", "self-cleavage": 0}, {"variant": "A5G A11G A24U U132C", "self-cleavage": 1.16}, {"variant": "A5G G44A A89G U102A U108C A114C A116U A118G", "self-cleavage": 0.01}, {"variant": "A5G A33G U39C", "self-cleavage": 0.97}, {"variant": "A5G U9C A68G A82U U103C A111G", "self-cleavage": 0.07}, {"variant": "A5G G29A A67G", "self-cleavage": 0.88}, {"variant": "A5U A67G A86G", "self-cleavage": 1.05}, {"variant": "A5G A86G A114G", "self-cleavage": 0.22}, {"variant": "A4G U57C U100A", "self-cleavage": 0.43}, {"variant": "A5G A62G A114G A125G", "self-cleavage": 0.1}, {"variant": "A5G A52G A95G A96G", "self-cleavage": 0.64}, {"variant": "A5G U38C G58A A67G", "self-cleavage": 1.38}, {"variant": "A5G A30G A56G A69G A91G A110G U132C", "self-cleavage": 0.09}, {"variant": "A5G U38A G73A", "self-cleavage": 0.32}, {"variant": "A5C A22G A64G U127C", "self-cleavage": 0.82}, {"variant": "A4G U57C A59G A129G", "self-cleavage": 0.3}, {"variant": "A5G A11G A110U", "self-cleavage": 0.78}]}]}
